Test results taken from the supplement of paper PMC10126150.
Sequences with one replicate were seen in a single cluster, so their values are uncertain.

Tested on: ATP
Assay: switch fluorescence ratio, 500 uM ATP over buffer (Cy3 cluster intensity, sum of 5 cycles each) (fold (ratio)); higher = stronger signal-on switching upon ATP binding; sequences stand for … in TCGTCGGCAGCGTCAGATGTGTATAAGAGACAGTTTTTTTTTTTTTTTTTTTTTTTTT…TC
Conditions: aptamer strand: ATP DNA aptamer (quencher-CACCTGGGGGAGTATTGCGGAGGAAGG + anchor), 100 nM annealed; ATP concentration: 500 uM; one replicate
In short: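 Cy3-labelled switching-strand clusters on a modified Illumina MiSeq flow-cell were annealed to 100 nM quencher-labelled ATP aptamer, imaged in selection buffer, then imaged after 15 min with 500 uM ATP at 22 °C. Five buffer/ATP cycles ran, with NaOH stripping and re-annealing between them. The fluorescence ratio is summed target-cycle over summed buffer-cycle Cy3 intensity per cluster, averaged per switch-domain sequence. Clusters outside 100-1000 RFU were excluded.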
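Note: ATP exposure 15 min at 22 °C before imaging.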

Q: Which switch fluorescence ratio does the source give for GGGCTCGACT here?
A: 1.01

Q: How did the switch fluorescence ratio turn out when GGGCTCTGGG was run?
A: 1.01

Q: How did the switch fluorescence ratio turn out when GGGCTGAATA was run?
A: 0.974

Q: For GGGCTGGCCT, which switch fluorescence ratio is on record?
A: 1.01

Q: For GGGCTGGGAT, which switch fluorescence ratio is on record?
A: 1.08

Q: With GGGCTGTGGT as the sequence, how does the switch fluorescence ratio read?
A: 0.996

Q: How did the switch fluorescence ratio turn out when GGGCTTATGT was run?
A: 0.964

Q: How did the switch fluorescence ratio turn out when GGGCTTGATT was run?
A: 0.999

Q: For GGGGAAACCG, which switch fluorescence ratio is on record?
A: 1.08

Q: How did the switch fluorescence ratio turn out when GGGGAATCTT was run?
A: 0.991

Q: GGGGACACG was tested. Which switch fluorescence ratio did it give?
A: 1.02

Q: How did the switch fluorescence ratio turn out when GGGGACGCTC was run?
A: 1.01

Q: Which switch fluorescence ratio does the source give for GGGGACGTCC here?
A: 0.98

Q: GGGGACTCTA was tested. Which switch fluorescence ratio did it give?
A: 1.07

Q: For GGGGAGCTTT, which switch fluorescence ratio is on record?
A: 0.969

Q: Which switch fluorescence ratio does the source give for GGGGATCAGT here?
A: 0.964

Q: For GGGGATCCTA, which switch fluorescence ratio is on record?
A: 0.965

Q: How did the switch fluorescence ratio turn out when GGGGCAAATC was run?
A: 1.11

Q: Which switch fluorescence ratio does the source give for GGGGCACCTT here?
A: 0.999

Q: For GGGGCAGAGT, which switch fluorescence ratio is on record?
A: 0.971

Q: Which switch fluorescence ratio does the source give for GGGGCAGCAA here?
A: 1.53

Q: How did the switch fluorescence ratio turn out when GGGGCATACG was run?
A: 1.08

Q: How did the switch fluorescence ratio turn out when GGGGCCAATA was run?
A: 1

Q: With GGGGCCCAAA as the sequence, how does the switch fluorescence ratio read?
A: 1.01

Q: GGGGCCCGAT was tested. Which switch fluorescence ratio did it give?
A: 1.01

Q: With GGGGCCGCCG as the sequence, how does the switch fluorescence ratio read?
A: 0.997

Q: For GGGGCCGCT, which switch fluorescence ratio is on record?
A: 0.943

Q: Which switch fluorescence ratio does the source give for GGGGCGCTTT here?
A: 1

Q: GGGGCGGACC was tested. Which switch fluorescence ratio did it give?
A: 1.03

Q: How did the switch fluorescence ratio turn out when GGGGCGGTTA was run?
A: 1.03

Q: GGGGCGTAAC was tested. Which switch fluorescence ratio did it give?
A: 0.99

Q: GGGGCGTAG was tested. Which switch fluorescence ratio did it give?
A: 0.929

Q: For GGGGCTGACG, which switch fluorescence ratio is on record?
A: 0.955

Q: GGGGCTGCCC was tested. Which switch fluorescence ratio did it give?
A: 1.02

Q: GGGGGACACG was tested. Which switch fluorescence ratio did it give?
A: 0.97

Q: For GGGGGCACTG, which switch fluorescence ratio is on record?
A: 1.07

Q: How did the switch fluorescence ratio turn out when GGGGGCATTC was run?
A: 1.03

Q: For GGGGGCCGAA, which switch fluorescence ratio is on record?
A: 1.01

Q: GGGGGGTA was tested. Which switch fluorescence ratio did it give?
A: 0.995

Q: How did the switch fluorescence ratio turn out when GGGGGTAACG was run?
A: 1.14

Q: With GGGGGTCTAT as the sequence, how does the switch fluorescence ratio read?
A: 1.02

Q: Which switch fluorescence ratio does the source give for GGGGTAGCTA here?
A: 1.02

Q: With GGGGTAGTCT as the sequence, how does the switch fluorescence ratio read?
A: 0.993

Q: How did the switch fluorescence ratio turn out when GGGGTCCCTG was run?
A: 0.955

Q: Which switch fluorescence ratio does the source give for GGGGTCGGC here?
A: 0.933

Q: With GGGGTCTTG as the sequence, how does the switch fluorescence ratio read?
A: 1.02

Q: With GGGGTGTGTC as the sequence, how does the switch fluorescence ratio read?
A: 0.975

Q: GGGGTTCAAC was tested. Which switch fluorescence ratio did it give?
A: 1.02

Q: How did the switch fluorescence ratio turn out when GGGGTTGGAT was run?
A: 1

Q: For GGGGTTTACC, which switch fluorescence ratio is on record?
A: 0.999

Q: For GGGGTTTAGA, which switch fluorescence ratio is on record?
A: 0.983

Q: How did the switch fluorescence ratio turn out when GGGGTTTCAC was run?
A: 1.02

Q: With GGGGTTTCAT as the sequence, how does the switch fluorescence ratio read?
A: 0.96

Q: GGGTACCAAT was tested. Which switch fluorescence ratio did it give?
A: 0.964

Q: Which switch fluorescence ratio does the source give for GGGTACCCGG here?
A: 0.99

Q: For GGGTACTAAT, which switch fluorescence ratio is on record?
A: 0.966

Q: How did the switch fluorescence ratio turn out when GGGTAGACGC was run?
A: 0.974

Q: How did the switch fluorescence ratio turn out when GGGTAGCCA was run?
A: 1.01

Q: For GGGTAGTCTC, which switch fluorescence ratio is on record?
A: 0.98

Q: For GGGTATGGAA, which switch fluorescence ratio is on record?
A: 0.977

Q: With GGGTATTTCA as the sequence, how does the switch fluorescence ratio read?
A: 0.968

Q: How did the switch fluorescence ratio turn out when GGGTCAATGC was run?
A: 2.2

Q: Which switch fluorescence ratio does the source give for GGGTCACAGT here?
A: 1.01

Q: For GGGTCACGGC, which switch fluorescence ratio is on record?
A: 0.998

Q: For GGGTCCAAGT, which switch fluorescence ratio is on record?
A: 1

Q: GGGTCGCGCG was tested. Which switch fluorescence ratio did it give?
A: 1.02

Q: Which switch fluorescence ratio does the source give for GGGTCGTGTG here?
A: 0.963

Q: For GGGTCTGCGT, which switch fluorescence ratio is on record?
A: 0.975

Q: GGGTGAAAT was tested. Which switch fluorescence ratio did it give?
A: 0.998

Q: With GGGTGATCCG as the sequence, how does the switch fluorescence ratio read?
A: 1.02

Q: Which switch fluorescence ratio does the source give for GGGTGCGGT here?
A: 1.01

Q: With GGGTGCTAGG as the sequence, how does the switch fluorescence ratio read?
A: 0.989

Q: GGGTGGCATG was tested. Which switch fluorescence ratio did it give?
A: 0.975

Q: GGGTGGGCAA was tested. Which switch fluorescence ratio did it give?
A: 1.07

Q: With GGGTGGTTAT as the sequence, how does the switch fluorescence ratio read?
A: 0.984

Q: With GGGTGTATGC as the sequence, how does the switch fluorescence ratio read?
A: 0.969

Q: For GGGTGTATTC, which switch fluorescence ratio is on record?
A: 1.01

Q: How did the switch fluorescence ratio turn out when GGGTGTTGGC was run?
A: 1

Q: With GGGTTACACG as the sequence, how does the switch fluorescence ratio read?
A: 0.994

Q: How did the switch fluorescence ratio turn out when GGGTTACCAA was run?
A: 1

Q: Which switch fluorescence ratio does the source give for GGGTTATATG here?
A: 0.967

Q: For GGGTTCACGT, which switch fluorescence ratio is on record?
A: 0.982

Q: GGGTTCGAGC was tested. Which switch fluorescence ratio did it give?
A: 0.999

Q: With GGGTTCGTAG as the sequence, how does the switch fluorescence ratio read?
A: 0.993

Q: GGGTTCTCGT was tested. Which switch fluorescence ratio did it give?
A: 0.992
